About 16,000 (7.3%) of roughly 220,000 compounds were called active. This list was built around the results that the source calls inconclusive (neither active nor inactive); the mix of calls is not that of the screen. Calls follow the shape of the dose curve; as a rule, active = well fitted inhibition curve with a large enough effect (not every such curve was filed as active); inconclusive = small, poorly fitted or top-dose-only effect, or another doubt; inactive = no such curve, though single readings can be large or run the other way. No potency is given beside an inconclusive call; the fits are too rough.
Each compound was assayed against Aldehyde dehydrogenase 1A1 (Homo sapiens) (UniProt P00352) (assay: qHTS Assay for Inhibitors of Aldehyde Dehydrogenase 1 (ALDH1A1)). Details: Purified ALDH1A1, NADH fluorescence, propionaldehyde substrate; series mostly up to 75.3 µM; activity, negative = inhibition: at the top concentration.
UniProt P00352, sequence (P00352 whole entry, looked up): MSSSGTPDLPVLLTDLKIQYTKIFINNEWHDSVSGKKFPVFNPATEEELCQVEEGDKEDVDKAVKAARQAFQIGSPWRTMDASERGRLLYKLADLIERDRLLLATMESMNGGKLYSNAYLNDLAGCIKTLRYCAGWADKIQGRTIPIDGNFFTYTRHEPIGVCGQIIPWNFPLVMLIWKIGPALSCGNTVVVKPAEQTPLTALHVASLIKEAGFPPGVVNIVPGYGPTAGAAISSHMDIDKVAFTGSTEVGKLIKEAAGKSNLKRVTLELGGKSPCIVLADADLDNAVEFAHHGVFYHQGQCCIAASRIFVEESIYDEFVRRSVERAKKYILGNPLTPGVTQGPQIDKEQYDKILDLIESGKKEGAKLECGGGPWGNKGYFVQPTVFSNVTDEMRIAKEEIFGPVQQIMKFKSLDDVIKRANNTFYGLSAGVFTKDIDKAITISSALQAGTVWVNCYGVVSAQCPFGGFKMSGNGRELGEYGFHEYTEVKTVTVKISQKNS
In the case of NNC(=O)CN1CCCc2ccccc21, the Potency is reported as active: 6.31 µM.
For COc1ccc(N(CCCN2C(=O)c3cccc4cccc(c34)C2=O)C(=O)c2cccnc2)cc1, the Potency was inconclusive [inhibitor, partial curve].
For CCCCC1C(C#N)=C(C)NC2=C1C(=O)CC(C)(C)C2 (stereo not drawn), the Potency was inconclusive [inhibitor, partial curve].
For NS(=O)(=O)c1ccc(N/C=C/C(=O)c2ccc(Br)cc2)cc1, the Potency was inconclusive [inhibitor, partial curve].
In the case of Cc1ccc(NC(=O)CN2CCN(c3ccccn3)CC2)c(Cl)c1, the Potency is reported as inconclusive [inhibitor, single point].
In the case of COc1ccccc1NC(=O)C1=C(C)N(c2ccccc2)C(=S)NC1c1cccc(C(F)(F)F)c1 (stereo not drawn), the Potency is reported as inconclusive [inhibitor, full curve].
O=C(NCCN1CCCCC1)c1ccc(=O)oc1 was tested, and the Potency was inconclusive [inhibitor, partial curve].
In the case of CC(C)NC(=O)c1ccc2c(=O)n(C3CCCC3)c(=S)[nH]c2c1, the Potency is reported as active: 0.447 µM.
Cc1ccc(S(=O)(=O)N(CC(=O)NCc2ccncc2)C2CCCCC2)cc1 was tested, and the Potency was inconclusive [inhibitor, partial curve].
With COc1ccc(C(C)=O)c2c1OCCO2 the Potency was inconclusive [inhibitor, single point].
With Cc1ccc2nc(Nc3ncc4c(n3)CCCC4=O)nc(C)c2c1 the Potency was inconclusive [inhibitor, single point].
For Cn1c(=O)c2c3c(sc2n2c(SCC(=O)c4ccccc4)nnc12)COC(C)(C)C3, the Potency was inconclusive [inhibitor, partial curve].
For C=CCSc1nc(N)c(C#N)c(-c2ccccc2)c1C#N, the Potency was inconclusive [inhibitor, single point].
With CCOc1cc2[nH]c(=O)n(CCCN3CCCC3=O)c(=O)c2cc1OCC the Potency was inconclusive [inhibitor, single point].
In the case of Cc1ccc(S(=O)(=O)Oc2ccc(/C=C(/NC(=O)c3ccccc3)C(=O)NCCC(=O)O)cc2)cc1, the Potency is reported as active: 2.51 µM.
With COc1ccc(NS(=O)(=O)c2cc(NC(=O)C3CCCO3)ccc2N2CCCCC2)cc1 (stereo not drawn) the Potency was inconclusive [inhibitor, single point].
For CC(C)(C)n1nnnc1SCC(=O)Nc1nn(-c2ccccc2)nc1C(N)=O, the Potency was inconclusive [inhibitor, single point].
Cc1nc2c(-c3ccc(F)cc3)c(C)nn2c(C)c1CCC(=O)N1CCC(Cc2ccccc2)CC1 was tested, and the Potency was inconclusive [inhibitor, partial curve, poor fit].
In the case of COc1ccc(NC(=O)c2ccc3c(=O)n(Cc4ccco4)c(=S)[nH]c3c2)c(OC)c1, the Potency is reported as active: 0.891 µM.
In the case of COc1ncc2ncc(=O)n(CCc3ccccc3)c2n1, the Potency is reported as inconclusive [inhibitor, single point].
In the case of c1ccc(Oc2ccc(-c3ccnc4ncnn34)cc2)cc1, the Potency is reported as inconclusive [inhibitor, partial curve].
For CCCNC(=O)C12CCC(C)(C(=O)C1Br)C2(C)C (stereo not drawn), the Potency was inconclusive [inhibitor, single point].
In the case of CC(C)(C)N1C(=O)c2ccc(C(=O)Nc3nccs3)cc2C1=O, the Potency is reported as inconclusive [inhibitor, single point].
Cc1nn(Cc2ccccc2)c(C)c1NC(=O)CCCn1nc(C)c([N+](=O)[O-])c1C was tested, and the Potency was inconclusive [inhibitor, single point].
In the case of Clc1ncc(CN2CCN(c3ccccc3)CC2)s1, the “activity, negative = inhibition” value is reported as inactive: -0.581%.
O=C(NCc1ccccc1Cl)C(=O)NCC1OCCN1S(=O)(=O)c1cccs1 (stereo not drawn) was tested, and the Potency was active: 14.1 µM.
CC12CC(NC(=O)N1c1cccc(C(=O)N3CCN(c4ccccc4F)CC3)c1)c1ccccc1O2 (stereo not drawn) was tested, and the “activity, negative = inhibition” value was inactive: -2.13%.
For CC(Oc1ccccc1Cl)C(=O)N1CCOCC1 (stereo not drawn), the Potency was inconclusive [inhibitor, single point].
With C=CCN(C(=O)c1csnn1)C(C(=O)NC(C)(C)C)c1ccncc1 (stereo not drawn) the “activity, negative = inhibition” value was inactive: -5.32%.
In the case of O=C(c1csnn1)N1CCC[C@@]2(CCN(Cc3ccccc3)C2)C1, the “activity, negative = inhibition” value is reported as inactive: 12.4%.
Cc1cccc(C)c1NC(=O)C1(N2CCN(C(=O)c3ccco3)CC2)CCCCC1 was tested, and the Potency was inconclusive [inhibitor, single point].
For NC(=O)N/N=C/c1c(F)cccc1F, the “activity, negative = inhibition” value was inactive: -1.74%.
COC(=O)Cc1ccc2oc(-c3cccnc3)nc2c1 was tested, and the Potency was inconclusive [inhibitor, single point].
For COc1ccccc1C1CC(c2cccs2)=Nc2ccccc2S1 (stereo not drawn), the “activity, negative = inhibition” value was inactive: -3.42%.
Cc1ccc2cc(C(c3nnnn3Cc3ccccc3)N3CCc4ccccc43)c(=O)[nH]c2c1C (stereo not drawn) was tested, and the Potency was inconclusive [inhibitor, single point].
For CCCc1nc2c(C)cc(C)cc2c(N)c1CC, the Potency was inconclusive [inhibitor, single point].
With O=[n+]1c2c(n([O-])c3cc(Br)ccc31)CCCC2 the “activity, negative = inhibition” value was inactive: -6.05%.
COC(=O)/C(=C1/Oc2ccc(C)cc2S1)C(F)(F)F was tested, and the “activity, negative = inhibition” value was inactive: 2.06%.
Cc1nn(C)c(=S)n1-c1ccc(Cl)cc1 was tested, and the “activity, negative = inhibition” value was inactive: 14.6%.
For O=C(CSCc1ccc(Cl)cc1)N1CCCCC1, the Potency was active: 11.2 µM.
For CCC(=O)Nc1cccc(-n2nnnc2SCC(=O)N2CCCCC2)c1, the Potency was inconclusive [inhibitor, partial curve].
Cc1cccc(C)c1NC(=O)CSc1ncnc2nc[nH]c12 was tested, and the “activity, negative = inhibition” value was inactive: 6.29%.
For O=C(NCC1COc2ccccc2O1)C1CCCN(S(=O)(=O)c2cnc[nH]2)C1 (stereo not drawn), the “activity, negative = inhibition” value was inactive: -0.816%.
For CCc1nc(N2CCCCC2)c2oc3ccccc3c2n1, the Potency was active: 12.6 µM.
For COCCCNC(=O)C1CCN(C(=O)c2cc3sccc3n2Cc2ccc(F)cc2)CC1, the Potency was active: 10 µM.
With CC1CCc2sc(C(=O)N=Nc3c(O)[nH]c4ccccc34)cc2C1 (stereo not drawn) the “activity, negative = inhibition” value was inactive: 7.63%.
In the case of CCCCCOC(=O)CSc1nc2c(c(=O)[nH]c(=O)n2C)n1CCc1ccccc1, the Potency is reported as active: 25.1 µM.
CCOC(=O)C1=C(C)NC2=C(C(=O)CCC2)C1c1cccnc1 (stereo not drawn) was tested, and the Potency was inconclusive [inhibitor, partial curve].

Source: PubChem BioAssay AID1030 (National Center for Advancing Translational Sciences (NCATS), 2008)
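For activity, negative = inhibition in this document: plate controls were no enzyme wells and a reference inhibitor.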
Potency is read from the fitted curve at half-maximal effect; tags tell the direction and shape of the fitted curve.
